{
  "sequences": {"note": "The chains behind the UniProt entries cited, without tags or fusion partners. Where a name states a change or a piece, a line headed by the entry shows the natural chain unless it says otherwise.", "UniProt P62491": "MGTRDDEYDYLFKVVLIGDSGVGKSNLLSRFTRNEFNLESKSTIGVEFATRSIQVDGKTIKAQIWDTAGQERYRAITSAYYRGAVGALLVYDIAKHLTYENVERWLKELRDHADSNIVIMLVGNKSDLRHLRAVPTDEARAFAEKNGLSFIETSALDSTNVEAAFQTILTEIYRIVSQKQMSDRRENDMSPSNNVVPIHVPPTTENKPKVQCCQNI"},
  "source": "paper PMC5940305",
  "about": "“The Rab11-binding protein RELCH/KIAA1468 controls intracellular cholesterol distribution” (The Journal of Cell Biology, 2018)",
  "molecules": {"B1": {"name": "RELCH/KIAA1468, endogenous in mouse brain lysate (protein, UniProt Q148V7 1-1216)", "chain": "MAAMAPGGGGSGSGVNPFLSDSDEDDDEVAATEDRRAGLRLGAGVGLDPGSAGSLSPQDPMALGSSARPGLAVEMSAAPAALGGSGETPARLSIDAIAAQLLRDQYLLTALELHTELLESGRELPRLRDYFSNPGNFERQSGTPPGMGAPGIPGASIVGGAGGREPSTTSGGGQLNRAGSISTLDSLDFARYSDDGNRETDERVAVLEFELRKAKETIQALRANLTKAAEHEVPLQERKNYKSSPEIQEPIKPLEKRALNFLVNEFLLKNNYKLTSITFSDENDDQDFELWDDVGLNIPKPPDLLQLYRDFGNHQVTGKDLVDVASGVDEDELEALTPILGNVPPTLDTPLPIENTLLVQKLEDKISLLNNEKWSLMEQIRRLESEMDILKAEHFATPAVGDSVQPSLVWSSQKDSEDNRQSPAVNSSDQEKTKDVHLEIPDAADSFIPKENSSGSFPRKEREELPPSSVSNKTTLHFDQPNRKLSPAFHQALLSFCRMSADSRLGSEVSRIADSEKSVMLMLGRCLPHIVPNVLLAKREELIPLILCTACLHPEPKERDQLLHILFNLIKRPDDEQRQMILTGCVAFARHVGPTRVEAELLPQCWEQINHKYPERRLLVAESCGALAPYLPKEIRSSLVLSMLQQMLMEDKADLVREAVIKSLGIIMGYIDDPDKYQQGFELLLSALGDPSERVVSATHQVFLPAYAAWTTELGNLQSHLIPTLLNKIEKLLREGEHGLDEHKLHMYLSALQSLIPSLFALVLQNAPFSSKAKLHGEVPHIEVTRFPRPMSPLQDVSTIIGSREQLAVLLQLYDYQLEHEGTTGWESLLWVVNQLLPQLIEIVGKINVTSTACVHEFSRFFWRLCRTFGKIFTNTKVKPQFQEILRLSEENIDSSAGNGVLTKATVPIYATGVLTCYIQEEDRKLLVGFLEDVMTLLSLSHAPLDSLKASFVELGANPAYHELLLTVLWYGVVHTSALVRCTAARMFELLVKGVNETLVAQRVVPALITLSSDPEISVRIATIPAFGTIMETVIQRELLERVKMQLASFLEDPQYQDQHSLHTEVIRTFGRVGPNAEPRFRDEFVIPHLHKLALVNNLQIVDSKKLDIATHLFEAYSALSCCFISEDLMVNHFLPGLRCLRTDMEHLSPEHEVILSSMIKECEQKVENKTVQEPPGSMSIAASLVSEDTKTKFLNKMGQLTTSGAMLANVFQRKK"}, "B2": {"name": "OSBP, endogenous in mouse brain lysate (protein, UniProt Q3B7Z2 1-805)", "chain": "MAATELRGVVGPGPAAIAAPGGGGAGPPAVGGGGGRGDAGPGPGVAAATAATAGGPGPGAGGVAAGGPGSAPPAAGSGGSGAGGSGSAREGWLFKWTNYIKGYQRRWFVLSNGLLSYYRSKAEMRHTCRGTINLATANITVEDSCNFIISNGGAQTYHLKASSEVERQRWVTALELAKAKAVKMLAESDDSGDEESVSQTDKTELQSTLRTLSSKVEDLSTCNDLIAKHGTALQRSLSELESLKLPAESNEKIKQVNERATLFRITSNAMINACRDFLMLAQTHSKKWQKSLQYERDQRIRLEETLEQLAKQHNHLERAFRGATVLPANPPGSAGSGKDQCCSGKGDMSDEDDENEFFDAPEIITMPENLGHKRTGSNISGASSDVSLDEQYKHQLEETKKEKRTRIPYKPNYSLNLWSIMKNCIGKELSKIPMPVNFNEPLSMLQRLTEDLEYHELLDRAAKCENSLEQLCYVAAFTVSSYSTTVFRTSKPFNPLLGETFELDRLEENGYRSICEQVSHHPPAAAHHAESKNGWTLRQEIKITSKFRGKYLSIMPLGTIHCIFHSTGHHYTWKKVTTTVHNIIVGKLWIDQSGEIDIVNHKTGDKCNLKFVPYSYFSRDVARKVTGEVTDPSGKVHFALLGTWDEKMDCFKVQAASGENGGDARQRGHEAEDSRVMLWKRNPLPKNAENMYYFSELALTLNAWEGGTAPTDSRLRPDQRLMENGRWDEANAEKQRLEEKQRLSRKKREAEAAKATEDGTPHDPYKALWFERKKDPVTRELTHIYSGEYWECKEKQDWGSCPDIF"}, "B3": {"name": "RELCH (1–496), two-hybrid construct (domain or fragment, UniProt Q148V7 1-496)", "chain": "MAAMAPGGGGSGSGVNPFLSDSDEDDDEVAATEDRRAGLRLGAGVGLDPGSAGSLSPQDPMALGSSARPGLAVEMSAAPAALGGSGETPARLSIDAIAAQLLRDQYLLTALELHTELLESGRELPRLRDYFSNPGNFERQSGTPPGMGAPGIPGASIVGGAGGREPSTTSGGGQLNRAGSISTLDSLDFARYSDDGNRETDERVAVLEFELRKAKETIQALRANLTKAAEHEVPLQERKNYKSSPEIQEPIKPLEKRALNFLVNEFLLKNNYKLTSITFSDENDDQDFELWDDVGLNIPKPPDLLQLYRDFGNHQVTGKDLVDVASGVDEDELEALTPILGNVPPTLDTPLPIENTLLVQKLEDKISLLNNEKWSLMEQIRRLESEMDILKAEHFATPAVGDSVQPSLVWSSQKDSEDNRQSPAVNSSDQEKTKDVHLEIPDAADSFIPKENSSGSFPRKEREELPPSSVSNKTTLHFDQPNRKLSPAFHQALLSF"}},
  "key": {"[1]": {"biological_target": "T1, Flag-OSBP, full length (human) (UniProt P22059)", "T1 sequence": "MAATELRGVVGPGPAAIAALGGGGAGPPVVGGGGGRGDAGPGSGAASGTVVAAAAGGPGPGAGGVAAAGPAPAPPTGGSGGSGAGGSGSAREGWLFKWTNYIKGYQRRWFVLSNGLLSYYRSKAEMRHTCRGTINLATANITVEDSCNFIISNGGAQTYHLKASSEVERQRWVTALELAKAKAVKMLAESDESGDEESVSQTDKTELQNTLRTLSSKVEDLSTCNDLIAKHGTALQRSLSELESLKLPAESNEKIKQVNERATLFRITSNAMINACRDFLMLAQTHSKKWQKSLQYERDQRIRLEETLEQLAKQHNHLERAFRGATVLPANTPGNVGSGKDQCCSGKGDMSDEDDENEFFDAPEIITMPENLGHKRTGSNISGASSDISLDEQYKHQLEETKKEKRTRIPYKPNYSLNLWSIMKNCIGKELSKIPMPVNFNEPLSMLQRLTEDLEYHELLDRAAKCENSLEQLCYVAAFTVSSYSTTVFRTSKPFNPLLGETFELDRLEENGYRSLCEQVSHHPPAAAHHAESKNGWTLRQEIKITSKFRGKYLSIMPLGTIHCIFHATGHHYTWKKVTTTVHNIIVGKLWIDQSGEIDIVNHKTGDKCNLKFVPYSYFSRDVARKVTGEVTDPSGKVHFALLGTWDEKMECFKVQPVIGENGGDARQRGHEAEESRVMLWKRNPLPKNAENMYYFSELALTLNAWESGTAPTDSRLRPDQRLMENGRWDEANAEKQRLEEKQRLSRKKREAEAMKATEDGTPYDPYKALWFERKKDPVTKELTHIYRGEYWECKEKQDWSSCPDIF", "test": "co-IP; Flp-In–293 cells coexpressing Flag-, EGFP- and Myc-tagged Rab11a, RELCH and OSBP; anti-Flag M2 affinity gel, immunoblot with EGFP, Myc and Flag antibodies"}, "[2]": {"biological_target": "GST-Rab11a Q70A, loaded with GTP (not stated (human or mouse cDNA cloned)) (UniProt P62491)", "test": "pull-down; 500 µg GST-Rab11a Q70A on Glutathione Sepharose 4B, 20 mg mouse brain lysate in NL100 with 10 mM MgCl2 and 10 mM GTP, 1 h at 4°C; silver stain, band identified by mass spectrometry, immunoblot with a RELCH antibody; only the target purified"}, "[3]": {"biological_target": "T2, RELCH/KIAA1468, endogenous in mouse brain lysate (mouse (endogenous in mouse brain)) (UniProt Q148V7)", "T2 sequence": "B1 chain", "test": "co-IP; rabbit antiserum against RELCH on protein G Sepharose, 10 mg mouse brain lysate in NL100, 2 h at 4°C; silver stain with mass spectrometry and immunoblot with OSBP and RELCH antibodies"}, "[4]": {"biological_target": "Gal4BD-Rab11a (Q70A), GTP-locked (not stated (human or mouse cDNA cloned)) (UniProt P62491)", "test": "two-hybrid; S. cerevisiae PJ69-4A, Gal4AD (pACT2) RELCH constructs and Gal4BD (pFBT9) GTP-locked Rabs; growth on QDO plates, 3 d at 30°C"}},
  "note": "These are yes or no findings as the source states them, for the method shown. For some of these results: In cells and extracts the contact can be indirect. Some entries that bind do so weakly or less than the wild type. For some of these results: Where a sequence is shown, tags or fusion partners need not be part of it.",
  "data": [
    {"molecule": "EGFP-tagged human Rab11a Q70A (from UniProt P62491 1-216)", "values": [
      {"measurement": "binding", "setting": "[1]", "result": "binds"}
    ]},
    {"molecule": "B1", "values": [
      {"measurement": "binding", "setting": "[2]", "result": "binds"}
    ]},
    {"molecule": "B2", "values": [
      {"measurement": "binding", "setting": "[3]", "result": "binds"}
    ]},
    {"molecule": "B3", "values": [
      {"measurement": "binding", "setting": "[4]", "result": "no binding"}
    ]}
  ]
}
